In article PMC5892938:
Some of the results follow. At the low end of the ranking the order means little.

molecular target: GST-SBP-SLBP (stem-loop binding protein) (UniProt Q14493); experiment: targeted RNA Bind-n-Seq; conditions: RBNS binding buffer: 25 mM Tris pH 7.5, 150 mM KCl, 3 mM MgCl2, 0.1% Tween, 0.5 mg/mL BSA, 1 mM DTT; 27 nM protein, 750 pM RNA pool; temperature not stated; high values mean tight binding;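 also: DESeq read counts versus GST-SBP nonspecific binding control pulldown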

| Sequence | binding signal (log2 fold change) |
| --- | --- |
| GGUCACGUCUCAAUCAACUCAUCGCCAGGAGUUUCCUCCUGUUAAUUCAACAGCUCGCAGUCAAG | 0.00848 |
| GGUCACGUCUCAAUCAACUCAUACGAGGGGGGGAAAACCCCUUUACCCUCCAAAUCAACAGCUCGCAGUCAAG | 0.209 |
| GGUCACGUCUCAAUCAACUCCCUAGAGGGGGGGAAAACCCCUUUACCCUCGUUAUCAACAGCUCGCAGUCAAG | 0.277 |
| GGUCACGUCUCAAUCAACUCUUUCUCAGGAGUUUCCUCCUGUUUUUUCAACAGCUCGCAGUCAAG | -0.0698 |
| GGUCACGUCUCAAUCAACUCCAUAGAGGGGGGGAAAACCCCUUUGCCCUCCAUAUCAACAGCUCGCAGUCAAG | 0.0149 |
| GGUCACGUCUCAAUCAACUCAAUCCCCAGGGAAACCCCUGGCUAUCUCAACAGCUCGCAGUCAAG | -0.232 |
| GGUCACGUCUCAAUCAACUCAUCUCCAGGAGUUUACUCCUGCUAUUUCAACAGCUCGCAGUCAAG | 0.208 |
| GGUCACGUCUCAAUCAACUCUAACGAGGGGGGGAAAACCCCUUUACCCUCAAUCUCAACAGCUCGCAGUCAAG | -0.0951 |
| GGUCACGUCUCAAUCAACUCAUUCUCAGGAGUUUACUCCUGUUAUUUCAACAGCUCGCAGUCAAG | 0.117 |
| GGUCACGUCUCAAUCAACUCACUAGAGGGGGGGAAAACCCCUUUGCCCUCAUUUUCAACAGCUCGCAGUCAAG | -0.499 |
| GGUCACGUCUCAAUCAACUCAUUCUCCAGGGAAAUCCCUGGCAAUUUCAACAGCUCGCAGUCAAG | 0.138 |
| GGUCACGUCUCAAUCAACUCACUCGAGGGGGGGAAAACCCCUUUACCCUCAAUCUCAACAGCUCGCAGUCAAG | -0.0651 |
| GGUCACGUCUCAAUCAACUCUAUCCCCAGGGAAAUCCCUGGUAUAUUCAACAGCUCGCAGUCAAG | 0.333 |
| GGUCACGUCUCAAUCAACUCUAUCCCCAGGGAAAUCCCUGGUAAUCUCAACAGCUCGCAGUCAAG | 0.0242 |
| GGUCACGUCUCAAUCAACUCAUCUUCAGGAGUUUGCUCCUGCUAAUUCAACAGCUCGCAGUCAAG | 0.0374 |
| GGUCACGUCUCAAUCAACUCUUCUCCCAGGGAAAACCCUGGCUAUGUCAACAGCUCGCAGUCAAG | 0.00526 |
| GGUCACGUCUCAAUCAACUCAUCUCCCAGGGAAAGCCCUGGCAAACUCAACAGCUCGCAGUCAAG | -0.242 |
| GGUCACGUCUCAAUCAACUCAUAAGAGGGGGGGAAAACCCCUUUGCCCUCAUCGUCAACAGCUCGCAGUCAAG | -0.386 |
| GGUCACGUCUCAAUCAACUCAAUCUCAGGAGUUUACUCCUGCUUUCUCAACAGCUCGCAGUCAAG | 0.0323 |
| GGUCACGUCUCAAUCAACUCAUAAGAGGGGGGGAAAACCCCUUUACCCUCAAUUUCAACAGCUCGCAGUCAAG | 0.0805 |
| GGUCACGUCUCAAUCAACUCCCAAGAGGGGGGGAAAACCCCUUUGCCCUCAUAAUCAACAGCUCGCAGUCAAG | 0.212 |
| GGUCACGUCUCAAUCAACUCAACUCCCAGGGAAAACCCUGGCAAAUUCAACAGCUCGCAGUCAAG | -0.0878 |
| GGUCACGUCUCAAUCAACUCUACUUCCAGGGAAAACCCUGGUAAUUUCAACAGCUCGCAGUCAAG | -0.0271 |

| Sequence | binding signal (log2 fold change) |
| --- | --- |
| GGUCACGUCUCAAUCAACUCUAUUCCCAGGGAAAUCCCUGGCAAAUUCAACAGCUCGCAGUCAAG | -0.0692 |
| GGUCACGUCUCAAUCAACUCAAUCCCCAGGGAAAGCCCUGGUUUUCUCAACAGCUCGCAGUCAAG | 0.0482 |
| GGUCACGUCUCAAUCAACUCAUAAGAGGGGGGGAAAACCCCUUUGCCCUCACCAUCAACAGCUCGCAGUCAAG | -0.156 |
| GGUCACGUCUCAAUCAACUCUACUUCCAGGGAAACCCCUGGCAAACUCAACAGCUCGCAGUCAAG | 0.0186 |
| GGUCACGUCUCAAUCAACUCCACAGAGGGGGGGAAAACCCCUUUGCCCUCCAUAUCAACAGCUCGCAGUCAAG | 0.437 |
| GGUCACGUCUCAAUCAACUCUAUCCCCAGGGAAACCCCUGGCAUUUUCAACAGCUCGCAGUCAAG | -0.0515 |
| GGUCACGUCUCAAUCAACUCCUAAGAGGGGGGGAAAACCCCUUUGCCCUCAACUUCAACAGCUCGCAGUCAAG | -0.152 |
| GGUCACGUCUCAAUCAACUCUUUCUCCAGGGAAAACCCUGGCUAUGUCAACAGCUCGCAGUCAAG | -0.12 |
| GGUCACGUCUCAAUCAACUCAACUCCCAGGGAAAACCCUGGCAAACUCAACAGCUCGCAGUCAAG | 0.165 |
| GGUCACGUCUCAAUCAACUCAUUUUCCAGGGAAAUCCCUGGUAUAUUCAACAGCUCGCAGUCAAG | -0.275 |
| GGUCACGUCUCAAUCAACUCAUUCUCCAGGGAAAACCCUGGCUUAGUCAACAGCUCGCAGUCAAG | -0.19 |
| GGUCACGUCUCAAUCAACUCUUCCUCAGGAGUUUACUCCUGUUUUUUCAACAGCUCGCAGUCAAG | -0.103 |
| GGUCACGUCUCAAUCAACUCAGUCCCAGGAGUUUACUCCUGUUAAUUCAACAGCUCGCAGUCAAG | 0.0944 |
| GGUCACGUCUCAAUCAACUCAUCGCCAGGAGUUUGCUCCUGCUUAUUCAACAGCUCGCAGUCAAG | 0.155 |
| GGUCACGUCUCAAUCAACUCUAUCUCAGGAGUUUACUCCUGUAUACUCAACAGCUCGCAGUCAAG | 0.284 |
| GGUCACGUCUCAAUCAACUCAUUCUCAGGAGUUUUCUCCUGCAUUUUCAACAGCUCGCAGUCAAG | 0.11 |
| GGUCACGUCUCAAUCAACUCAUCUCCAGGAGUUUCCUCCUGCUUACUCAACAGCUCGCAGUCAAG | 0.123 |
| GGUCACGUCUCAAUCAACUCUAAAGAGGGGGGGAAAACCCCUUUACCCUCAAAAUCAACAGCUCGCAGUCAAG | 0.0957 |
| GGUCACGUCUCAAUCAACUCAGUUUCCAGGGAAAUCCCUGGCAUAUUCAACAGCUCGCAGUCAAG | -0.00908 |
| GGUCACGUCUCAAUCAACUCUUCCUCCAGGGAAACCCCUGGCAAAUUCAACAGCUCGCAGUCAAG | -0.119 |
| GGUCACGUCUCAAUCAACUCUUUUUCCAGGGAAACCCCUGGUUAUCUCAACAGCUCGCAGUCAAG | -0.0792 |
| GGUCACGUCUCAAUCAACUCGUUUUCAGGAGUUUUCUCCUGCUAUUUCAACAGCUCGCAGUCAAG | -0.0347 |
| GGUCACGUCUCAAUCAACUCAACUUCCAGGGAAAGCCCUGGUAAUUUCAACAGCUCGCAGUCAAG | 0.00373 |

| Sequence | binding signal (log2 fold change) |
| --- | --- |
| GGUCACGUCUCAAUCAACUCAGUUCCCAGGGAAAUCCCUGGCAUUUUCAACAGCUCGCAGUCAAG | -0.126 |
| GGUCACGUCUCAAUCAACUCAUACGAGGGGGGGAAAACCCCUUUACCCUCAAACUCAACAGCUCGCAGUCAAG | 0.382 |
| GGUCACGUCUCAAUCAACUCAAUCUCCAGGGAAAUCCCUGGUAUUCUCAACAGCUCGCAGUCAAG | 0.036 |
| GGUCACGUCUCAAUCAACUCUUCUCCCAGGGAAAACCCUGGCUUAUUCAACAGCUCGCAGUCAAG | -0.247 |
| GGUCACGUCUCAAUCAACUCUAUCCCCAGGGAAAUCCCUGGCAUAUUCAACAGCUCGCAGUCAAG | 0.0134 |
| GGUCACGUCUCAAUCAACUCAUUAGAGGGGGGGAAAACCCCUUUACCCUCAUCCUCAACAGCUCGCAGUCAAG | -0.142 |
| GGUCACGUCUCAAUCAACUCAAUGUCAGGAGUUUUCUCCUGUUUUUUCAACAGCUCGCAGUCAAG | 0.102 |
| GGUCACGUCUCAAUCAACUCAUCCCCCAGGGAAAGCCCUGGUUUAUUCAACAGCUCGCAGUCAAG | 0.0478 |
| GGUCACGUCUCAAUCAACUCAUCUCCAGGAGUUUUCUCCUGCUAAUUCAACAGCUCGCAGUCAAG | -0.0751 |
| GGUCACGUCUCAAUCAACUCAACUUCCAGGGAAAACCCUGGCAUUUUCAACAGCUCGCAGUCAAG | 0.305 |
| GGUCACGUCUCAAUCAACUCAACUCCCAGGGAAACCCCUGGUUAUCUCAACAGCUCGCAGUCAAG | 0.121 |
| GGUCACGUCUCAAUCAACUCAGUCCCCAGGGAAAGCCCUGGUAAAUUCAACAGCUCGCAGUCAAG | -0.347 |
| GGUCACGUCUCAAUCAACUCAUCUCCCAGGGAAAACCCUGGUUUAUUCAACAGCUCGCAGUCAAG | -0.0821 |
| GGUCACGUCUCAAUCAACUCAACUCCAGGAGUUUCCUCCUGUAUAUUCAACAGCUCGCAGUCAAG | -0.0836 |
| GGUCACGUCUCAAUCAACUCAUCGUCCAGGGAAACCCCUGGUUAUCUCAACAGCUCGCAGUCAAG | 0.0188 |
| GGUCACGUCUCAAUCAACUCAUCUCCCAGGGAAAACCCUGGUAUUCUCAACAGCUCGCAGUCAAG | -0.0413 |
| GGUCACGUCUCAAUCAACUCAUUUCCAGGAGUUUACUCCUGUUUACUCAACAGCUCGCAGUCAAG | -0.0247 |
| GGUCACGUCUCAAUCAACUCUAUCCCCAGGGAAAUCCCUGGUAAAUUCAACAGCUCGCAGUCAAG | 0.143 |
| GGUCACGUCUCAAUCAACUCAACUCCAGGAGUUUCCUCCUGCUAAUUCAACAGCUCGCAGUCAAG | 0.0484 |
| GGUCACGUCUCAAUCAACUCUAUCCCAGGAGUUUUCUCCUGCUAACUCAACAGCUCGCAGUCAAG | 0.179 |
| GGUCACGUCUCAAUCAACUCAUUCCCCAGGGAAAGCCCUGGUAAUUUCAACAGCUCGCAGUCAAG | -0.0575 |
| GGUCACGUCUCAAUCAACUCUAGUCCAGGAGUUUUCUCCUGCUUUCUCAACAGCUCGCAGUCAAG | -0.168 |
